# Results as given in the supplement of paper PMC8728848.
# The other results are listed elsewhere or left out.
# B1: SalT (Orysata sativa) (protein)
# chain: MTLVKIGLWGGNGGSAQDISVPPKKLLGVTIYSSDAIRSIAFNYIGVDGQEYAIGPWGGGEGTSTEIKLGSSEHIKEISGTHGPVYDLADIVTYLKIVTSANNTYEAGVPNGKEFSIPLQDSGHVVGFFGRSGTLIDAIGIYVHPILEQKLISEEDLNSAVDHHHHHH
# What was measured:
# Assay in all cases: glycan array binding signal (z-score within array); higher = stronger binding
# Conditions in all cases: glycan notation: IUPAC condensed, linker removed
# [1] = target: Gal(b1-3)GlcNAc6S
# In short: (§1)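 Arrays were curated from the Consortium for Functional Glycomics database, 3228 in total, and kept only where the protein sequence was available. Binding is expressed as a within-array Z-score. This score was averaged across arrays of the same protein sequence at different concentrations or buffers and across linkers, and negative values can be read as non-binding.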
# [2] = target: Gal(b1-3)[Fuc(a1-4)]GlcNAc
# In short: as §1
# [3] = target: Gal(b1-3)[Fuc(a1-4)]GlcNAc(b1-2)Man(a1-3)[Gal(b1-3)[Fuc(a1-4)]GlcNAc(b1-2)Man(a1-6)]Man(b1-4)GlcNAc(b1-4)[Fuc(a1-6)]GlcNAc
# In short: as §1
# [4] = target: Gal(b1-3)[Fuc(a1-4)]GlcNAc(b1-3)Gal(b1-3)[Fuc(a1-4)]GlcNAc
# In short: as §1
# [5] = target: Gal(b1-3)[Fuc(a1-4)]GlcNAc(b1-3)Gal(b1-4)GlcNAc
# In short: as §1
# [6] = target: Gal(b1-3)[Fuc(a1-4)]GlcNAc(b1-3)Gal(b1-4)[Fuc(a1-3)]GlcNAc
# In short: as §1
# [7] = target: Gal(b1-3)[Fuc(a1-4)]GlcNAc(b1-6)GalNAc
# In short: as §1
# [8] = target: Gal(b1-3)[GlcNAc(b1-6)]GalNAc
# In short: as §1
# [9] = target: Gal(b1-3)[Neu5Ac(a2-6)]GalNAc
# In short: as §1
# [10] = target: Gal(b1-3)[Neu5Ac(a2-6)]GlcNAc(b1-6)Gal(b1-4)Glc
# In short: as §1
# [11] = target: Gal(b1-3)[Neu5Ac(b2-6)]GalNAc
# In short: as §1
# [12] = target: Gal(b1-4)Gal
# In short: as §1
# [13] = target: Gal(b1-4)GalNAc(a1-3)[Fuc(a1-2)]Gal(b1-4)GlcNAc
# In short: as §1
# [14] = target: Gal(b1-4)GalNAc(b1-3)[Fuc(a1-2)]Gal(b1-4)GlcNAc
# In short: as §1
# [15] = target: Gal(b1-4)Glc
# In short: as §1
# [16] = target: Gal(b1-4)Glc6S
# In short: as §1
# [17] = target: Gal(b1-4)GlcNAc
# In short: as §1
# [18] = target: Gal(b1-4)GlcNAc(a1-6)Gal(b1-4)GlcNAc
# In short: as §1
# [19] = target: Gal(b1-4)GlcNAc(b1-2)Man
# In short: as §1
# [20] = target: Gal(b1-4)GlcNAc(b1-2)Man(a1-3)Man(b1-4)GlcNAc(b1-4)GlcNAc
# In short: as §1
# [21] = target: Gal(b1-4)GlcNAc(b1-2)Man(a1-3)[Gal(b1-4)GlcNAc(b1-2)Man(a1-6)]Man(b1-4)GlcNAc(b1-4)GlcNAc
# In short: as §1
# [22] = target: Gal(b1-4)GlcNAc(b1-2)Man(a1-3)[Gal(b1-4)GlcNAc(b1-2)Man(a1-6)]Man(b1-4)GlcNAc(b1-4)[Fuc(a1-6)]GlcNAc
# In short: as §1
# [23] = target: Gal(b1-4)GlcNAc(b1-2)Man(a1-3)[Gal(b1-4)GlcNAc(b1-2)][GlcNAc(b1-4)]Man(b1-4)GlcNAc(b1-4)GlcNAc
# In short: as §1
# [24] = target: Gal(b1-4)GlcNAc(b1-2)Man(a1-3)[GlcNAc(b1-2)Man(a1-6)]Man(b1-4)GlcNAc(b1-4)GlcNAc
# In short: as §1
# [25] = target: Gal(b1-4)GlcNAc(b1-2)Man(a1-3)[Man(a1-6)]Man(b1-4)GlcNAc(b1-4)GlcNAc
# In short: as §1
# [26] = target: Gal(b1-4)GlcNAc(b1-2)Man(a1-6)Man(b1-4)GlcNAc(b1-4)GlcNAc
# In short: as §1
# [27] = target: Gal(b1-4)GlcNAc(b1-2)Man(a1-6)[GlcNAc(b1-2)Man(a1-3)]Man(b1-4)GlcNAc(b1-4)GlcNAc
# In short: as §1
# [28] = target: Gal(b1-4)GlcNAc(b1-2)Man(a1-6)[Man(a1-3)]Man(b1-4)GlcNAc(b1-4)GlcNAc
# In short: as §1
# [29] = target: Gal(b1-4)GlcNAc(b1-2)[Gal(b1-4)GlcNAc(b1-4)]Man(a1-3)[Gal(b1-4)GlcNAc(b1-2)Man(a1-6)]Man(b1-4)GlcNAc(b1-4)GlcNAc
# In short: as §1
# [30] = target: Gal(b1-4)GlcNAc(b1-2)[Gal(b1-4)GlcNAc(b1-4)]Man(a1-3)[Gal(b1-4)GlcNAc(b1-2)[Gal(b1-4)GlcNAc(b1-6)]Man(a1-6)]Man(b1-4)GlcNAc(b1-4)GlcNAc
# In short: as §1
# [31] = target: Gal(b1-4)GlcNAc(b1-2)[Gal(b1-4)GlcNAc(b1-4)]Man(a1-3)[GlcNAc(b1-4)][Gal(b1-4)GlcNAc(b1-2)Man(a1-6)]Man(b1-4)GlcNAc(b1-4)GlcNAc
# In short: as §1
# [32] = target: Gal(b1-4)GlcNAc(b1-2)[Gal(b1-4)GlcNAc(b1-4)]Man(a1-3)[GlcNAc(b1-4)][Gal(b1-4)GlcNAc(b1-2)[Gal(b1-4)GlcNAc(b1-6)]Man(a1-6)]Man(b1-4)GlcNAc(b1-4)GlcNAc
# In short: as §1
# [33] = target: Gal(b1-4)GlcNAc(b1-2)[Gal(b1-4)GlcNAc(b1-4)]Man(a1-3)[GlcNAc(b1-4)][Gal(b1-4)GlcNAc(b1-2)[Gal(b1-4)GlcNAc(b1-6)]Man(a1-6)]Man(b1-4)GlcNAc(b1-4)[Fuc(a1-6)]GlcNAc
# In short: as §1
# [34] = target: Gal(b1-4)GlcNAc(b1-2)[Gal(b1-4)GlcNAc(b1-6)]Man(a1-6)[Gal(b1-4)GlcNAc(b1-2)Man(a1-3)]Man(b1-4)GlcNAc(b1-4)GlcNAc
# In short: as §1
# [35] = target: Gal(b1-4)GlcNAc(b1-2)[Gal(b1-4)GlcNAc(b1-6)]Man(a1-6)[Gal(b1-4)GlcNAc(b1-2)Man(a1-3)]Man(b1-4)GlcNAc(b1-4)[Fuc(a1-6)]GlcNAc
# In short: as §1
# [36] = target: Gal(b1-4)GlcNAc(b1-2)[Gal(b1-4)GlcNAc(b1-6)]Man(a1-6)[GlcNAc(b1-4)][Gal(b1-4)GlcNAc(b1-2)Man(a1-3)]Man(b1-4)GlcNAc(b1-4)GlcNAc
# In short: as §1
# [37] = target: Gal(b1-4)GlcNAc(b1-3)Gal(b1-3)GlcNAc
# In short: as §1
# [38] = target: Gal(b1-4)GlcNAc(b1-3)Gal(b1-4)Glc
# In short: as §1
# [39] = target: Gal(b1-4)GlcNAc(b1-3)Gal(b1-4)GlcNAc
# In short: as §1
# [40] = target: Gal(b1-4)GlcNAc(b1-3)Gal(b1-4)GlcNAc(b1-3)Gal(b1-4)GlcNAc
# In short: as §1
# [41] = target: Gal(b1-4)GlcNAc(b1-3)Gal(b1-4)[Fuc(a1-3)GlcNAc(b1-6)]Gal(b1-4)Glc
# In short: as §1
# [42] = target: Gal(b1-4)GlcNAc(b1-3)Gal(b1-4)[Fuc(a1-3)]GlcNAc(b1-3)Gal(b1-4)[Fuc(a1-3)]GlcNAc
# In short: as §1
# [43] = target: Gal(b1-4)GlcNAc(b1-3)GalNAc
# In short: as §1
# [44] = target: Gal(b1-4)GlcNAc(b1-3)[Gal(b1-4)GlcNAc(b1-6)]Gal(b1-4)GlcNAc
# In short: as §1
# [45] = target: Gal(b1-4)GlcNAc(b1-3)[Gal(b1-4)GlcNAc(b1-6)]GalNAc
# In short: as §1
binder,measurement,setting,value
B1,glycan array binding signal (z-score),[1],-0.3
same,glycan array binding signal (z-score),[2],-0.306
same,glycan array binding signal (z-score),[3],0.157
same,glycan array binding signal (z-score),[4],-0.303
same,glycan array binding signal (z-score),[5],-0.309
same,glycan array binding signal (z-score),[6],-0.308
same,glycan array binding signal (z-score),[7],-0.303
same,glycan array binding signal (z-score),[8],-0.308
same,glycan array binding signal (z-score),[9],-0.303
same,glycan array binding signal (z-score),[10],-0.306
same,glycan array binding signal (z-score),[11],-0.307
same,glycan array binding signal (z-score),[12],-0.291
same,glycan array binding signal (z-score),[13],-0.306
same,glycan array binding signal (z-score),[14],-0.31
same,glycan array binding signal (z-score),[15],-0.306
same,glycan array binding signal (z-score),[16],-0.306
same,glycan array binding signal (z-score),[17],-0.307
same,glycan array binding signal (z-score),[18],-0.306
same,glycan array binding signal (z-score),[19],-0.307
same,glycan array binding signal (z-score),[20],3.14
same,glycan array binding signal (z-score),[21],3.29
same,glycan array binding signal (z-score),[22],1.08
same,glycan array binding signal (z-score),[23],0.03
same,glycan array binding signal (z-score),[24],2.65
same,glycan array binding signal (z-score),[25],2.43
same,glycan array binding signal (z-score),[26],-0.297
same,glycan array binding signal (z-score),[27],2.65
same,glycan array binding signal (z-score),[28],4.64
same,glycan array binding signal (z-score),[29],-0.203
same,glycan array binding signal (z-score),[30],-0.118
same,glycan array binding signal (z-score),[31],-0.309
same,glycan array binding signal (z-score),[32],-0.31
same,glycan array binding signal (z-score),[33],-0.303
same,glycan array binding signal (z-score),[34],3.13
same,glycan array binding signal (z-score),[35],0.799
same,glycan array binding signal (z-score),[36],0.028
same,glycan array binding signal (z-score),[37],-0.308
same,glycan array binding signal (z-score),[38],-0.306
same,glycan array binding signal (z-score),[39],-0.307
same,glycan array binding signal (z-score),[40],-0.303
same,glycan array binding signal (z-score),[41],-0.31
same,glycan array binding signal (z-score),[42],-0.308
same,glycan array binding signal (z-score),[43],-0.31
same,glycan array binding signal (z-score),[44],-0.31
same,glycan array binding signal (z-score),[45],-0.306
